Patent publication US20250376539A1 (KIRA PHARMACEUTICALS SUZHOU, published 2025)

T1: recombinant cynomolgus (cyno) complement C2 (XP_005553508.1), C-terminal 6His-tag, made in house (CHO cell … (cynomolgus monkey (Macaca fascicularis), UniProt P06681 21-752 (human entry)))
T1 construct: also called cyno C2; Cyno C2
T1 chain: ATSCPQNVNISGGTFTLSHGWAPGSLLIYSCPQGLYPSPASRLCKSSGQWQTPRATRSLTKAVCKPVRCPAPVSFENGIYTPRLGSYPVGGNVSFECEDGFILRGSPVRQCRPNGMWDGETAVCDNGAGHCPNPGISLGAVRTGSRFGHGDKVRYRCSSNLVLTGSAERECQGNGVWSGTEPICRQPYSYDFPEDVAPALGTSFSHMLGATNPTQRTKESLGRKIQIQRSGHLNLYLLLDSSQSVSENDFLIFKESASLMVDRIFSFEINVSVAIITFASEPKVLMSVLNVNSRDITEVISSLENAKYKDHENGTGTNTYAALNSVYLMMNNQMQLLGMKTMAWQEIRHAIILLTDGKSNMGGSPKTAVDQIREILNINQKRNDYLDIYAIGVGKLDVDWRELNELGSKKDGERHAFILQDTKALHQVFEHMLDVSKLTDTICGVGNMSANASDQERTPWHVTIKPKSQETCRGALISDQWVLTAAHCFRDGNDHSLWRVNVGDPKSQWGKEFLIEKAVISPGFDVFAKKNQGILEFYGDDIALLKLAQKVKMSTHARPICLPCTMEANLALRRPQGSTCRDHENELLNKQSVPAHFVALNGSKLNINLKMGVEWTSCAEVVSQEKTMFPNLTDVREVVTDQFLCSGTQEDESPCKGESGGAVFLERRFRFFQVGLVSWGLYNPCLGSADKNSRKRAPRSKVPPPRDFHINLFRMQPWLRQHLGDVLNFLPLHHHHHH

T2: recombinant human complement C2 (NP_000054.2), C-terminal 6His-tag, made in house (CHO cell expression) (human, UniProt P06681 21-752)
T2 construct: a linker before the tag is not described; also called human C2; Human C2
T2 sequence: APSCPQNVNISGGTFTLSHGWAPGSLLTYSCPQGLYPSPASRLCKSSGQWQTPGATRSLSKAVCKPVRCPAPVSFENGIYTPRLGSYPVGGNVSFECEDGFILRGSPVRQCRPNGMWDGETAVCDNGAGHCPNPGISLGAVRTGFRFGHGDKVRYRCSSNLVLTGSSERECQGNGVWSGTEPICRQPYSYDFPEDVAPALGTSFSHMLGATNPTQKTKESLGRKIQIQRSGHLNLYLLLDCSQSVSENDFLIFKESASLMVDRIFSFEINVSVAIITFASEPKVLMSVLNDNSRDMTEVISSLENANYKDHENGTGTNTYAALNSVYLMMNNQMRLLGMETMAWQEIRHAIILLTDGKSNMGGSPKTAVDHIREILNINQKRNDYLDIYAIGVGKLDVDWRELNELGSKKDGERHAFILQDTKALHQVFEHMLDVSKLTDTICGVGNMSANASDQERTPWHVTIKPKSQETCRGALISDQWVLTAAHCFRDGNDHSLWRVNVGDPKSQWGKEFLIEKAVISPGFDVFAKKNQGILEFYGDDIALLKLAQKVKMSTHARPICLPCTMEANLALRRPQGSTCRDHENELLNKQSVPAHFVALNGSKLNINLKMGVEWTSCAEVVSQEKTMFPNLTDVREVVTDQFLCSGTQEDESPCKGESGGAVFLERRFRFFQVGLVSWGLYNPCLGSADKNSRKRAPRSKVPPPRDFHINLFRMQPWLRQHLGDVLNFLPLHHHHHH


Legend:
[1] = target: T1, recombinant cynomolgus (cyno) …; assay: BLI (Gator), antibody on probe; 600 s association at pH 7.4, 600 s dissociation at pH 7.4
Method: (§1) The histidine mutant constructs in Table 4 were tested for their pH-dependent dissociation from human C2. Probe-immobilized anti-C2 antibodies were incubated with C2 at pH 7.4 for 600s, followed by a 600s dissociation period in K Buffer at pH 7.4 or pH 5.8. The data were processed and analyzed by the Gator evaluation software.
(§2) Non-fusion mAb were used for comparison.

[2] = target: T2, recombinant human complement C2 …; assay: as above
Method: as §1, §2

[3] = target: T1, recombinant cynomolgus (cyno) …; assay: BLI (Gator), antibody on probe; 600 s association at pH 7.4, 600 s dissociation at pH 5.8
Method: as §1, §2

[4] = target: T2, recombinant human complement C2 …; assay: as above
Method: as §1, §2

[5] = target: T1, recombinant cynomolgus (cyno) …; assay: BLI (Gator); ratio of dissociation at pH 5.8 to pH 7.4
Method: as §1, §2

[6] = target: T2, recombinant human complement C2 …; assay: as above
Method: as §1, §2

[7] = target: T1, recombinant cynomolgus (cyno) …; assay: binding kinetics (BLI presumed)
[8] = target: T2, recombinant human complement C2 …; assay: binding kinetics, neutral pH (BLI presumed)

| Dissociation (%) pH 7.4 [1] | Dissociation (%) pH 7.4 [2] | Dissociation (%) pH 5.8 [3] | Dissociation (%) pH 5.8 [4] | Fold dissociation pH 5.8/pH 7.4 [5] | Fold dissociation pH 5.8/pH 7.4 [6] | Kd [7] | koff [7] | kon [7] | Kd [8] | koff [8] | kon [8] | Binder |
| --- | --- | --- | --- | --- | --- | --- | --- | --- | --- | --- | --- | --- |
| 7.19% | 5.11% | 61.4% | 56.1% | 8.53 fold | 11 fold | 0.129 nM | 5.63e-05 s⁻¹ | 436000 M⁻¹ s⁻¹ | 0.0539 nM | 1.85e-05 s⁻¹ | 343000 M⁻¹ s⁻¹ | 3.2 H2-10 FH (Factor H 1-5 fusion with the representative pH dependent 3.2 H2-10) (other) chain 1: EVQLLESGGGLVQPGGSLRLSCAASGFTFRHYAMSWVRQAPGKGLEWVSLISGSGASTHYADSVKGRFTISRDNSENMLYLQMNSLRAEDTAVYYCAKDSLAVAGSEYFQHWGQGTLVTVSASTKGPSVFPLAPCSRSTSESTAALGCLVKDYFPEPVTVSWNSGALTSGVHTFPAVLQSSGLYSLSSVVTVPSSSLGTKTYTCNVDHKPSNTKVDKRVESKYGPP[human IgG4 Fc with S228P M428L N434A (EU numbers) not shown]EDCNELPPRRNTEILTGSWSDQTYPEGTQAIYKCRPGYRSLGNIIMVCRKGEWVALNPLRKCQKRPCGHPGDTPFGTFTLTGGNVFEYGVKAVYTCNEGYQLLGEINYRECDTDGWTNDIPICEVVKCLPVTAPENGKIVSSAMEPDREYHFGQAVRFVCNSGYKIEGDEEMHCSDDGFWSKEKPKCVEISCKSPDVINGSPISQKIIYKENERFQYKCNMGYEYSERGDAVCTESGWRPLPSCEEKSCDNPYIPNGDYSPLRIKHRTGDEITYQCRNGFYPATRGNTAKCTSTGWIPAPRCTLKP chain 2: SYVLTQAPSVSVAPGQTARITCGGNYFGGKSVHWYQQRPGQAPVLVVYDDSDRPSGIPERFSGSKSGNTATLAISRVEAGDEAAYYCQVYDTSSDHWVFGGGTKLTVL |
| 4.93% | 4.91% | 16% | 10.5% | 3.25 fold | 2.13 fold | – | – | – | – | – | – | 3.2FH (Factor H 1-5 fusion with 3.2; FH1-5 fused to the heavy chain C-terminus) (other, Antibody-factor H fusion protein) heavy: EVQLLESGGGLVQPGGSLRLSCAASGFTFRHYAMSWVRQAPGKGLEWVSLISGSGASTFYADSVKGRFTISRDNSENMLYLQMNSLRAEDTAVYYCAKDSLAVAGSEYFQHWGQGTLVTVSSASTKGPSVFPLAPCSRSTSESTAALGCLVKDYFPEPVTVSWNSGALTSGVHTFPAVLQSSGLYSLSSVVTVPSSSLGTKTYTCNVDHKPSNTKVDKRVESKYGPP[human IgG4 Fc with S228P M428L N434A (EU numbers) not shown]EDCNELPPRRNTEILTGSWSDQTYPEGTQAIYKCRPGYRSLGNIIMVCRKGEWVALNPLRKCQKRPCGHPGDTPFGTFTLTGGNVFEYGVKAVYTCNEGYQLLGEINYRECDTDGWTNDIPICEVVKCLPVTAPENGKIVSSAMEPDREYHFGQAVRFVCNSGYKIEGDEEMHCSDDGFWSKEKPKCVEISCKSPDVINGSPISQKIIYKENERFQYKCNMGYEYSERGDAVCTESGWRPLPSCEEKSCDNPYIPNGDYSPLRIKHRTGDEITYQCRNGFYPATRGNTAKCTSTGWIPAPRCTLKP light: SYVLTQAPSVSVAPGQTARITCGGNYFGGKSVHWYQQRPGQAPVLVVYDDSDRPSGIPERFSGSKSGNTATLAISRVEAGDEAAYYCQVYDTSSDHWVFGGGTKLTVLGQPKAAPSVTLFPPSSEELQANKATLVCLISDFYPGAVTVAWKADSSPVKAGVETTTPSKQSNNKYAASSYLSLTPEQWKSHRSYSCQVTHEGSTVEKTVAPTECS |
